# Results: PubChem BioAssay AID686979 (National Center for Advancing Translational Sciences (NCATS), 2013)
# Where “and” joins values, the source holds several entries; their conditions need not be identical. Equal entries are not always repeated. Out of some 420,000 compounds screened, about 50,000 (12%) were called active. The inconclusive results got no clear call from the source; some entries with a clear call stand among them for comparison. Calls follow the shape of the dose curve; as a rule, active = well fitted inhibition curve with a large enough effect; inconclusive = small, poorly fitted or top-dose-only effect; inactive = flat fitted curve, though single readings scatter. Potencies of inconclusive entries are left out as doubtful fits.
# Assay: qHTS for Inhibitors of human tyrosyl-DNA phosphodiesterase 1 (TDP1): qHTS in cells in presence of CPT; also: nearly all actives have a fitted effect of over 55% in size
# Details: chicken DT40 Tdp1-/-;hTDP1 cells + 20 nM CPT, ATP luminescence, 48 h; activity change, negative = growth inhibition: at 46.2 µM (top of the series) unless noted
# In short: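 Chicken DT40 Tdp1-/- cells stably complemented with human TDP1 were seeded at 400 cells/well in medium containing 20 nM camptothecin, exposed to pin-transferred compounds, and grown at 37 °C for at least 48 hr. Viability was read as ATP luminescence.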
# % is scaled to controls: 0 for no effect and ±100 for the full control effect; potency is read from the fitted curve at half-maximal effect; tags tell the direction and shape of the fitted curve.
SMILES,Potency,"activity change, negative = growth inhibition"
Cc1ccc(C(=O)c2ccc([N+](=O)[O-])cc2)cc1,inactive,–
COc1ccc(CNCC(O)(c2ccc(F)cc2)c2ccc(F)cc2)cc1,"inconclusive [inhibitor, single point]",–
CCC(=O)N1CCc2cc(S(=O)(=O)NC(CC(C)C)C(=O)NCCc3cccc(C)c3)ccc21 (stereo not drawn),"inconclusive [inhibitor, single point]",–
COc1ccc(Cl)cc1-c1noc([C@@H]2O[C@H](CO)[C@@H](O)[C@H]2O)n1,"inconclusive [inhibitor, single point]",–
O=C(CCSc1nc2ccccc2s1)N/N=C/c1c(O)ccc2ccccc12,active: 6.51 µM,–
CCOCCCNCc1cc(Cl)ccc1OCC,"inconclusive [inhibitor, single point]",–
O=C(NCCc1csc(-c2ccccc2)n1)c1cccs1,active: 23.1 µM,–
CC1CC(C)CN(C(=O)CCNS(=O)(=O)c2cccs2)C1 (stereo not drawn),inactive,–
CC1(NC(=O)Cc2c(Cl)cccc2Cl)CCS(=O)(=O)C1 (stereo not drawn),inactive,–
COc1cccc(NC(=O)c2ccccc2N2C(=O)C3C4C=CC(C5CC45)C3C2=O)c1 (stereo not drawn),inactive,–
Cc1ccc(NC(=O)CSc2nccn2Cc2ccco2)cc1Cl,"inconclusive [inhibitor, single point]",–
O=c1ccc2cc(S(=O)(=O)NCc3ccc(Br)cc3)ccc2[nH]1,"inconclusive [inhibitor, partial curve]",–
COc1ccc(/C=N/OCC(=O)Nc2nc3ccccc3s2)cc1OC,"inconclusive [inhibitor, single point]",–
Cc1ccc(C2=NOC(=O)/C2=C\c2ccc(C)o2)cc1,active: 13 µM,–
Cc1ccc(S(=O)(=O)N2CC3C(=O)C[C@@H](c4ccccc4)N(S(=O)(=O)c4cccc(Cl)c4)C3CC2c2ccccc2)cc1 (stereo partly drawn),"inconclusive [inhibitor, single point]",–
COc1ccc(C(C)(NC(C)=O)c2nc(-c3cccc(F)c3)cs2)cc1 (stereo not drawn),"inconclusive [inhibitor, single point]",–
O=C(CCl)NCCCN(C(=O)C(Cl)Cl)c1ccc([N+](=O)[O-])cc1,active: 9.2 µM,–
COC(=O)C(NNc1ccc(F)cc1)(NC(=O)c1ccccc1)C(F)(F)F (stereo not drawn),"inconclusive [inhibitor, single point]",–
CC(C)N(C(=O)[C@H]1C[C@H](CC(=O)NCc2ccco2)C(=O)N2CCc3c([nH]c4cc(-c5ccco5)ccc34)[C@]12C)C(C)C,"inconclusive [inhibitor, single point]",–
CC(=O)c1c(C)[nH]c(C(=O)N2CCN(c3ncccn3)CC2)c1C,"inconclusive [inhibitor, partial curve, poor fit]",–
COc1cccc2cc(C(=O)C3=C(O)C(=O)N(c4cc(C)on4)C3c3cccs3)oc12 (stereo not drawn),"inconclusive [inhibitor, single point]",–
CCOC(=O)Cc1cc(=O)[nH]c(/N=C(\N)Nc2ccc(C)c(C)c2)n1,"inconclusive [inhibitor, partial curve]",–
C[C@H]1CN([C@@H](C)CO)C(=O)c2cc(C#CCC3CCCC3)cnc2O[C@@H]1CN(C)C(=O)CC1CC1,"inconclusive [inhibitor, partial curve]",–

SMILES,Potency,"activity change, negative = growth inhibition"
CCN1CCN(c2ccc(S(=O)(=O)N3CCCCC3)cc2NC(=O)Cc2ccccc2F)CC1,"inconclusive [inhibitor, single point]",–
O=S(=O)(NC1CCc2ccccc21)c1ccc(S(=O)(=O)N2CCCC2)cc1 (stereo not drawn),"inconclusive [inhibitor, single point]",–
CCCSc1ncnc2sc(C)c(C)c12,inactive,–
COc1cc(F)cc(C2=CC(=O)C[C@H](c3ccc(F)cc3)C2)c1,"inconclusive [inhibitor, single point]",–
O=C1Nc2ccccc2/C1=C/c1ccc([N+](=O)[O-])cc1,inactive,–
COc1ccc(NC(=O)c2c(NC(=O)CNCc3ccco3)sc3c2CCC3)c(OC)c1,"inconclusive [inhibitor, partial curve]",–
COc1ccc(C2C(C(C)=O)=C(O)C(=O)N2CCc2ccccc2)c(OC)c1 (stereo not drawn),inactive,–
CC(C)NC(=O)C1(C)Cc2c(-c3ccc(N(C)C)cc3)ccnc2O1 (stereo not drawn),active: 4.11 µM,–
CC1(c2ccc(OC(F)F)cc2)NC(=O)N(CC(=O)Nc2ccccc2)C1=O (stereo not drawn),"inconclusive [inhibitor, single point]",–
CCn1cc(CN2CCC(C(=O)Nc3ccc(Oc4ccccc4F)cc3)CC2)cn1,"inconclusive [inhibitor, single point]",–
COc1ccc(-c2onc(C)c2C)cc1S(=O)(=O)NCC(C)c1ccccc1 (stereo not drawn),"inconclusive [inhibitor, single point]",–
CCNc1ccc(-c2nc(-c3ccccn3)no2)cc1[N+](=O)[O-],inactive,–
O=C1CC(c2cccs2)c2cc3c(cc2N1)OCO3 (stereo not drawn),"inconclusive [inhibitor, single point]",–
CC(C)(C)c1ccc(Cn2c(=O)cnc3ccccc32)cc1,active: 16.4 µM,–
COCCOC(=O)C1=C(C)OC(N)=C(C#N)C1c1ccc2c(c1)OCO2 (stereo not drawn),"inconclusive [inhibitor, single point]",–
CCCCC(=O)Nc1ccc(C(=O)NNC(=O)c2ccco2)cc1,inactive,–
CC(NC(=O)COC(=O)c1ccc(CO)cc1)C1CC2CCC1C2 (stereo not drawn),–,inconclusive: -30.8% [inhibitor]
Cc1ccccc1-n1c(C)nnc1SCC(=O)N(C)C1CCS(=O)(=O)C1 (stereo not drawn),inactive,–
O=C(CCCCn1c(=O)c2ccccc2n(Cc2ccccc2Cl)c1=O)NCc1ccc2c(c1)OCO2,"inconclusive [inhibitor, single point]",–
Cc1ccc2nc(-c3ccncc3)cc(C(=O)Nc3ccc(OC(F)F)cc3)c2c1,"inconclusive [inhibitor, single point]",–
CCc1ccc(CNC(=O)CCCn2c(=O)c3cccn3c3cccnc32)cc1,active: 16.4 µM,–
NS(=O)(=O)c1ccc(Nc2ccc3cc(S(=O)(=O)N4CCCCC4)ccc3n2)cc1,"inconclusive [inhibitor, single point]",–
O=C(/C=C/c1ccccc1[N+](=O)[O-])N1CCCCC1,"inconclusive [inhibitor, partial curve]",–

SMILES,Potency,"activity change, negative = growth inhibition"
O=C1C2C3C=CC(C3)C2C(=O)N1/N=C/c1cn(Cc2ccccc2)c2ccccc12 (stereo not drawn),active: 16.4 µM,–
O=C(C[C@@H]1CC[C@@H]2[C@H](COC[C@H](O)CN2S(=O)(=O)c2ccccc2)O1)Nc1ccccc1,"inconclusive [inhibitor, single point]",–
COc1cc(C(=O)NC2CCCc3ccccc32)cc(OC)c1C (stereo not drawn),"inconclusive [inhibitor, partial curve]",–
CCC1C(=O)NCCN1Cc1ccc2c(c1)CN(Cc1cc(OC)ccc1OC)CCO2 (stereo not drawn),–,inactive: -6.31% [at 9.04 µM]
COc1cccc2c1C(=O)/C(=C/c1ccc(N(C)C)cc1)C2,"inconclusive [inhibitor, partial curve]",–
COc1ccc(/C=N/N2CCN(C)CC2)c(OC)c1OC,inactive,–
CCOc1ccc(C2=Nn3c(nnc3-c3ccc(OC)cc3)SC2)cc1,active: 2.06 µM,–
CCCn1c2ccccc2c2cnn(CC(=O)N3CCN(c4ccccc4F)CC3)c(=O)c21,"inconclusive [inhibitor, single point]",–
CCCCc1ccc(-n2nnnc2SCC(=O)Nc2cc(OC)c([N+](=O)[O-])cc2C)cc1,"inconclusive [inhibitor, partial curve]",–
COc1cccc(-c2cc(C(=O)N3CCCCC3C)no2)c1 (stereo not drawn),inactive,–
O=C(CN1C(=O)NC2(CCCCCC2)C1=O)Nc1ccc(Cl)c([N+](=O)[O-])c1,"inconclusive [inhibitor, single point]",–
COC(=O)C1=C(C)NC(C)=C(C(=O)OCC(C)C)C1c1ccccc1[N+](=O)[O-] (stereo not drawn),active: 8.41 µM and active: 6.51 µM,–
O=C(c1ccc(CSc2ccc(Cl)cc2)cc1)N1CCOCC1,"inconclusive [inhibitor, single point]",–
CC(C)(C)NC(=O)C(c1cccc2ccccc12)n1c(=O)c(-c2cc3ccccc3[nH]2)nc2ccccc21 (stereo not drawn),"inconclusive [inhibitor, single point]",–
O=C(NCCNc1ccc([N+](=O)[O-])cc1Cl)c1ccccc1F,"inconclusive [inhibitor, single point]",–
CN1CCN(c2ncc3nc(-c4ccccc4)c(=O)n(C4CC4)c3n2)CC1,active: 20.6 µM,–
COc1cccc(OC)c1C(=O)NCCOc1cc(C)cc(C)c1,inactive,–
CC(C)Oc1cccc(C(=O)Nc2ccc3oc(-c4cccc(Cl)c4)nc3c2)c1,"inconclusive [inhibitor, single point]",–
CCN(CC)CCN(C(=O)C1=COCCO1)c1nc2ccc(C)cc2s1,"inconclusive [inhibitor, single point]",–
Cc1ccccc1CC1(CO)CCCN(C(=O)Cc2c(F)ccc(F)c2F)C1 (stereo not drawn),active: 16.4 µM,–
CCOc1ccccc1NC(=O)CN(c1ccc(C)cc1)S(=O)(=O)c1c(C)noc1C,"inconclusive [inhibitor, single point]",–
COc1cccc(N2CCN(C(=O)CCCn3c(=O)[nH]c4ccc(Br)cc4c3=O)CC2)c1,active: 20.6 µM,–
